# Laboratory results published in PubChem BioAssay AID624417 (National Center for Advancing Translational Sciences (NCATS), 2012).
# Screen size: about 410,000 compounds; about 6,400 (1.6%) were called active. The inconclusive results got no clear call from the source; some entries with a clear call stand among them for comparison. Calls follow the shape of the dose curve; as a rule, active = well fitted inhibition curve with a large enough effect; inconclusive = small, poorly fitted or top-dose-only effect; inactive = no such curve, though single readings can be large or run the other way. Potencies of inconclusive entries are left out as doubtful fits.
# Target: Glucagon-like peptide 1 receptor (Homo sapiens) (UniProt P43220)
# Assay: qHTS of GLP-1 Receptor Inverse Agonists (Inhibition Mode); also: nearly all actives have a fitted effect of over 55% in size
# Conditions: HEK293 GLP-1R CRE-luciferase, luminescence, 24 h, GLP-1R form is constitutively active; series mostly up to 38.3 µM
# In short: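 GLP-1R inverse agonism mode: basal reporter luminescence in engineered HEK293 cells measured after one day of compound exposure at 37 deg C, with a 12 min room-temperature detection step.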
# Potency is read from the fitted curve at half-maximal effect; tags tell the direction and shape of the fitted curve.
# UniProt P43220, sequence (P43220 whole entry, looked up): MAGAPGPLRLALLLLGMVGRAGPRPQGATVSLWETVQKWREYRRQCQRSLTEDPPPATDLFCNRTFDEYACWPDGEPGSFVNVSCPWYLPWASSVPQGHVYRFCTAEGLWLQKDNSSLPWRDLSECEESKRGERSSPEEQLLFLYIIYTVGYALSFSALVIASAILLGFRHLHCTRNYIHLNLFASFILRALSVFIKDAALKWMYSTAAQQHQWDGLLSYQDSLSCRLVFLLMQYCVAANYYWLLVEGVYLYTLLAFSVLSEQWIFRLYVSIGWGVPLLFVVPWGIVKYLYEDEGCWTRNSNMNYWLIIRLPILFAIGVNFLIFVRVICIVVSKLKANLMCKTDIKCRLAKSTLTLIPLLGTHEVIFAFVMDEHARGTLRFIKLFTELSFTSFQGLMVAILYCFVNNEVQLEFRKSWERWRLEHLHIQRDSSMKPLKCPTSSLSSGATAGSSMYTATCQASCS
row,Compound,Potency
1,O=C(NCCC1=CCCCC1)C1CCCN(S(=O)(=O)c2cccc3cccnc23)C1 (centres undefined),active: 7.94 µM
2,Cn1c(SCc2cccc(Cl)c2)nc(C(F)(F)F)cc1=O,"inconclusive [inhibitor, single point]"
3,COc1ccccc1-c1ccc2c(c1)C(C)(Cc1ccc(F)c(Cl)c1)C(=O)N2 (centres undefined),"inconclusive [inhibitor, single point]"
4,S=c1nc2ccccc2c2nc(-c3ccccc3Br)[nH]n12,"inconclusive [inhibitor, full curve, poor fit]"
5,O=C1c2ccccc2C(=O)C1c1ccccc1F,inactive
6,C(=N\N(c1ccccc1)c1ccccc1)/c1ccc2c(c1)OCO2,"inconclusive [inhibitor, partial curve, poor fit]"
7,COc1cccc(NS(=O)(=O)c2ccc3[nH]cc(C(=O)NC(C)c4ccccc4)c(=O)c3c2)c1 (centres undefined),"inconclusive [inhibitor, single point]"
8,CCOC(=O)C1(CCOc2ccccc2)CCN(Cc2ccc3c(c2)OCCO3)CC1,"inconclusive [inhibitor, partial curve, poor fit]"
9,O=C(NCCC1=CCCCC1)C(=O)NCC(c1ccco1)N1CCN(c2ccccc2F)CC1 (centres undefined),"inconclusive [inhibitor, full curve, poor fit]"
10,Cc1ccccc1CN1CCCN(CC(=O)Nc2ccc(F)cc2)S1(=O)=O,"inconclusive [inhibitor, single point]"
11,Cc1ccc(C(=O)N2CCN(c3ccc(NC(=O)COc4ccccc4C)cc3)CC2)cc1,"inconclusive [inhibitor, partial curve, poor fit]"
12,O=C(Nc1ccccc1)Nc1ccc(Oc2cccnc2)nc1,"inconclusive [inhibitor, single point]"
13,Cc1cc(C)n(C2CCCCC2OC(=O)CCc2ccccc2)n1 (centres undefined),"inconclusive [inhibitor, partial curve, poor fit]"
14,COc1cc(OC)cc(C(=O)NNC(=O)C2CSC3(C)CCC(=O)N23)c1 (centres undefined),"inconclusive [inhibitor, partial curve, poor fit]"
15,CCc1cccc(C)c1NC(=O)CSc1nc2ccncc2[nH]1,"inconclusive [inhibitor, single point]"
16,O=C(c1ccc(CSc2nc3ccncc3[nH]2)cc1)N1CCN(c2cccc(Cl)c2)CC1,"inconclusive [inhibitor, single point]"
17,CC(C)C(=O)Nc1nc2cc3c(cc2s1)OCCO3,"inconclusive [inhibitor, single point]"
18,Cc1ccc(/C(=N\S(=O)(=O)c2ccc(Br)cc2)Nc2ccccc2C)cc1,"inconclusive [inhibitor, partial curve, poor fit]"
19,COc1ccc(NC(=O)C(=O)NCC2CCCN2S(=O)(=O)c2cc(C)ccc2C)cc1 (centres undefined),active: 3.98 µM
20,Cc1ccc(S(=O)(=O)NC(C)(C)CN2CCc3ccccc3C2)cc1,"inconclusive [inhibitor, partial curve, poor fit]"

row,Compound,Potency
1,CCCc1cc(=O)[nH]c(SCc2nc(-c3ccc(OCC)cc3)no2)n1,inactive
2,CCNC(=O)C1(C)CCN(C(=O)c2cccc(OC(C)=O)c2C)C1 (centres undefined),inactive
3,C=CCN(CC=C)Cc1cc(=O)oc2cc(C)cc(C)c12,"inconclusive [inhibitor, single point]"
4,CCC(C)Sc1nnc(NC(=O)C2CCN(C(=O)c3ccco3)CC2)s1 (centres undefined),"inconclusive [inhibitor, single point]"
5,Cc1nn(S(=O)(=O)c2ccc(F)cc2)c(C)c1S(=O)(=O)N1CCCCCC1,inactive
6,CCOc1cccc(C2C(C(=O)c3ccc(C)o3)=C(O)C(=O)N2c2nccs2)c1 (centres undefined),"inconclusive [inhibitor, partial curve, poor fit]"
7,CC(CNC(=O)COc1ccccc1)OC(=O)Nc1ccc(Cl)c(Cl)c1 (centres undefined),"inconclusive [inhibitor, single point]"
8,CN(C(=O)CSc1nc(-c2ccccc2)cn1N)C(c1ccccc1)c1ccccc1,"inconclusive [inhibitor, partial curve, poor fit]"
9,CCN(CC)C(=S)SC1CCCCN(C(=O)c2ccccc2)C1=O (centres undefined),"inconclusive [inhibitor, partial curve, poor fit]"
10,COc1ccccc1N(C)S(=O)(=O)c1ccc(C(=O)NC2CCCCC2)cc1,"inconclusive [inhibitor, partial curve, poor fit]"
11,CCOC(=O)[C@]12CCCC=C1N(Cc1ccc(Cl)cc1Cl)C(=O)[C@H](CC(=O)NCC13CC4CC(CC(C4)C1)C3)C2,"inconclusive [inhibitor, single point]"
12,O=C(CSc1ncc(-c2ccccc2)nn1)NCc1ccco1,inactive
13,c1ccc(-c2noc(CSc3nnnn3-c3ccccc3)n2)cc1,"inconclusive [inhibitor, single point]"
14,CC1CCc2c(sc3ncnc(N4CCOCC4)c23)C1 (centres undefined),inactive
15,CC(OC(=O)c1ccccc1NCc1ccco1)C(=O)Nc1ncc(Cl)cc1Cl (centres undefined),"inconclusive [inhibitor, partial curve, poor fit]"
16,CN(C)/C=C/C(=O)c1ccc(N2CCN(c3ncc(C(F)(F)F)cc3Cl)CC2)cc1,"inconclusive [inhibitor, single point]"
17,Cc1nn(-c2ccccc2)c(-n2cccc2)c1C(=O)NCCCN1CCN(c2ccccc2F)CC1,"inconclusive [inhibitor, full curve, poor fit]"
18,CCN(CC)S(=O)(=O)c1cc(NC(=O)CNc2cccc(S(=O)(=O)N3CCCC3)c2)ccc1C,"inconclusive [inhibitor, single point]"
19,CCSc1nc(-c2ccc(OC)cc2)cc(-c2ccc(OC)cc2)c1C#N,"inconclusive [inhibitor, partial curve, poor fit]"
